Source: the RNAGym collection of RNA variant scans (doi:10.1093/nar/gkz1192)
Read counts are not given, so values of variants with three or more changes are uncertain.

B1: CPEB3 Ribozyme (parent)
chain: UAACAGGGGGCCACAGCAGAAGCGUUCACGUCGCAGCCCCUGUCAGAUUCUGGUGAAUCUGCGAAUUCUGCUGUAUAUCUC

Variants of: B1
Test: self-cleavage, relative activity (ratio to wild type); higher = more cleavage; in vitro, sequencing
Outline: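 Barcoded CPEB3 ribozyme mutants, produced by rounds of error-prone PCR, self-cleaved while being transcribed with T7 RNA polymerase for 5 hours at 37°C and during a subsequent 15 min DNase I step before EDTA was added. Sequencing of template-switched cDNA on Illumina gave cleaved and total reads, and DNA sequencing assigned barcodes to variants. Each variant's relative activity is its cleaved/total read fraction divided by the unmutated ribozyme's fraction, averaged across three batches. A variant needed a minimum of 5 reads.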

Variant | self-cleavage
UAACAGGGGGCCACAGCAGAAGCGUUCAUGUCGCAGCCCCUGUCAAAUUCUGGUGAAUCUGCGAAUCCUGCUGUAUAUCUC | 0.14
UAACAGGGGGCCACAGCAGAAGCGUUCAUGUCGCAGCCCCUGUCAGAUUCUGGUUAAUCUGCGGAUUCUGCUGUAGAUCUC | 0.13
UAACAGGGGGCCACAGCAGAAGCGUUCAUGUCGCAGCCCCUGUCAGAUUCUGGUGAAUCUGCGAAUUCUGCUUUAUAUCCC | 0.95
UAACAGGGGGCCACAGCAGAAGCGUUCAUGACGCAGCCCCAGUCAGAUUCUGGUGAAUCUGCGAAUUCUGCUGUAUAUCUC | 0.15
UAACAGGGGGCCACAGCAGAAGCGUUCAUGACGCAGCCCCAGUCAGAUUCUGGUGGAUCUGCGAAUUCUGCUGUAUAUCUC | 0.1
UAACAGGGGGCCACAGCAGAAGCGUUCAUGACGCAGCCCCAGUCAGAUUCGGGUGAAUCUGCGAAUUCUGCUGUAUUUCUC | 0.2
UAACAGGGGGCCACAGCAGAAGCGUUCAUGACGCAGCCCCCGUCAGAUUCUGGUGAAUCUGAGAAUUCUGCUGUAUAUCUC | 0.19
UAACAGGGGGCCACAGCAGAAGCGUUCAUGACGCAGCCCCUGUCAGAUUCUGGCGAAUCUGCGAAUCCAGCUGUAUAUCUC | 0.09
UAACAGGGGGCCACAGCAGAAGCGUUCAUGACGCAGCCCCUGUCAGAUUCUGGUGAAUCUGCGAAUCCUGCUGUAUAUCUC | 0.11
UAACAGGGGGCCACAGCAGAAGCGUUCAUGCCGCUGCCCCUGUCAGAUUCUGGUGAAUCUGCGAAUUCUGCUGUAAAUCUC | 0.08
UAACAGGGGGCCACAGCAGAAGCGUUCAUGCCGCAGCCCCUGUCAGAUUCCGGUGAAUCUGCCUAUUCUGCUGUAUAUCUC | 0.13
UAACAGGGGGCCACAGCAGAAGCGUUCAUGUCGCAGCCCCAGUCAGAUUCUGGUGAGUCUGCGAAUUCUGCUGUAUAUCUC | 0.15
UAACAGGGGGCCACAGCAGAAGCGUUCAUGUCGCAGCCCCAGGCAGAUUCUGGUGAAUCUGCGAAUCCUGCAGUAUAUUUC | 0.04
UAACAGGGGGCCACAGCAGAAGCGUUCAUGUCGCAGCCCCAGUCAGAUUCUGGGGAAACUGCGAAUACUGCUGUAUGUCUC | 0.06
UAACAGGGGGCCACAGCAGAAGCGUUCAUGUCGCAGCCCCAGUCAGAUUCUGGUGAAUCUGCGAAUUCUGCUGAUUAUCUC | 0.24
UAACAGGGGGCCACAGCAGAAGCGUUCAUGUCGCAGCCCCCGUCAGGUUCUGGUGAACCUGCGAAUUCUGCUGUGUAUCUC | 0.18
UAACAGGGGGCCACAGCAGAAGCGUUCAUGUCGCAGCCCCCGUCAGAUUCUGGUGAAUCUGCGAAUUCUGCUGUAUGUCUC | 0.47
UAACAGGGGGCCACAGCAGAAGCGUUCAUGUCGCAGCCCCCGUCAGAUUCUGGUGAAUCUGCGAAUUCUGGAGUAUAUCCC | 0.12
UAACAGGGGGCCACAGCAGAAGCGUUCAUGUCGCAGCCCCCGUCAGAUUCUGGUGAAUCUGCGAAUCCUGCCGUAUAUCUC | 0.11
UAACAGGGGGCCACAGCAGAAGCGUUCAUGUCGCAGCCCCCGUCAGAUUCUGGUGAAUCUGCGAAUUCUGCUGCAUACCUC | 0.77
UAACAGGGGGCCACAGCAGAAGCGUUCAUGUCGCAGCCCCUGACAGAUUCUGGUGAAUCUGCGGAUUCUGCUGUAGAUCUC | 0.31
UAACAGGGGGCCACAGCAGAAGCGUUCAUGUCGCAGCCCCUGACAGAUUCUGGUGAAUCUGCGUAUUCUGCUGUAUAUCUC | 0.52
UAACAGGGGGCCACAGCAGAAGCGUUCAUGUCGCAGCCCCUGACAGAUUCUGGUGAAUCUGCGAAUUCUGCCGUAUAUCCC | 0.94

Variant | self-cleavage
UAACAGGGGGCCACAGCAGAAGCGUUCAUGUCGCAGCCCCUGCCGGAUUCUGGUGAACCUGCGAAUUCGGCUGUAUAUCUC | 0.08
UAACAGGGGGCCACAGCAGAAGCGUUCAUGUCGCAGCCCCUGCCAGGUUCUGGUGAAUCUGCGAAUUCUGCUGUAUAUCUC | 0.29
UAACAGGGGGCCACAGCAGAAGCGUUCAUGUCGCAGCCCCUGCCAGAUUCUGGUGAAUCUGAGAAUUCAGCUGGAUACCUC | 0.07
UAACAGGGGGCCACAGCAGAAGCGUUCAUGUCGCAGCCCCUGCCAGAUUCAGGAGAAUCUGCGAUCUCUGCUGUUUAUCUC | 0.18
UAACAGGGGGCCACAGCAGAAGCGUUCAUGUCGCAGCCCCUGCCAGAUUCUGGUGAAUCUGCGAAUUCUGCUGUAUAUCAC | 0.41
UAACAGGGGGCCACAGCAGAAGCGUUCAUGUCGCAGCCCCUGGCAGAUUCUGGUGAAUCUGCGAAUUCAGCGGUAUAUCUC | 0.17
UAACAGGGGGCCACAGCAGAAGCGUUCAUGUCGCAGCCCCUGUCAGACUCAGGUGAAUCUGCGAAUCCUGCUGUAUAUCUC | 0.34
UAACAGGGGGCCACAGCAGAAGCGUUCAUGUCGCAGCCCCUGUCAGACUCCGGUGAAUCUGCGAAUUCUACUGUAUAUCUC | 0.1
UAACAGGGGGCCACAGCAGAAGCGUUCAUGUCGCAGCCCCUGUCAGACUCUGGUGAAUCUGCGAACUCUGCUGUAUAUCUC | 0.07
UAACAGGGGGCCACAGCAGAAGCGUUCAUGUCGCAGCCCCUGUCAGACUCUGGUGAAUCUGCGAAUUCUGCUGUAUACCUC | 0.36
UAACAGGGGGCCACAGCAGAAGCGUUCAUGUCGCAGCCCCUGUCAGAUACCGGUGAAUCUGCGAAUUCUGCGGUAUAUCUC | 0.42
UAACAGGGGGCCACAGCAGAAGCGUUCAUGUCGCAGCCCCUGUCAGAUCCUGGUGAAUCUGCGAAUUCCGCUGUAUAUCCC | 0.13
UAACAGGGGGCCACAGCAGAAGCGUUCAUGUCGCAGCCCCUGUCAGAUUCAGGUGGAUCUGCGAAUUCUGCUGUAUAUCUC | 0.18
UAACAGGGGGCCACAGCAGAAGCGUUCAUGUCGCAGCCCCUGUCAGAUUCAGGUGAUUCUGCGAAUUCAGCUGUAUAUCCA | 0.11
UAACAGGGGGCCACAGCAGAAGCGUUCAUGUCGCAGCCCCUGUCAGAUUCAGCUGAAUCUGCGAAUUCUGCUGUAUAUCUC | 0.62
UAACAGGGGGCCACAGCAGAAGCGUUCAUGUCGCAGCCCCUGUCAGAUUCCGGUGGAUCUGCGAAUUCUGCUGUAUAUCUC | 0.31
UAACAGGGGGCCACAGCAGAAGCGUUCAUGUCGCAGCCCCUGUCAGAUUCCGGUGAAUCUGCGGAUUCUGCUGUAUAUCUC | 0.31
UAACAGGGGGCCACAGCAGAAGCGUUCAUGUCGCAGCCCCUGUCAGAUUCCAGUGAAUCUGCGAAUUCUGCUGUAUAUCUC | 0.57
UAACAGGGGGCCACAGCAGAAGCGUUCAUGUCGCAGCCCCUGUCAGAUUCCGGUGAAUCCGCGAAUUCUGCCGUAUAUCUC | 0.09
UAACAGGGGGCCACAGCAGAAGCGUUCAUGUCGCAGCCCCUGUCAGAUUCUGGAGAAUCUGCGGAUUCUGCUGUAUACCUC | 0.31
UAACAGGGGGCCACAGCAGAAGCGUUCAUGUCGCAGCCCCUGUCAGAUUCUGGCGAGUCUGCGAAUUCUGCUGUAUAUCUC | 0.39
UAACAGGGGGCCACAGCAGAAGCGUUCAUGUCGCAGCCCCUGUCAGAUUCUGGCGAAUCUGCGAAUUCUGCUGUUUAUCUC | 0.64
UAACAGGGGGCCACAGCAGAAGCGUUCAUGUCGCAGCCCCUGUCAGAUUCUGGUGAACCAGCGAAUUCCGCUGUAUAACUC | 0.09

Variant | self-cleavage
UAACAGGGGGCCACAGCAGAAGCGUUCAUGUCGCAGCCCCUGUCAGAUUCUGGUGAAUCUGCGAACUCUGCUGUAUAUCCC | 0.43
UAACAGGGGGCCACAGCAGAAGCGUUCAUGUCGCAGCCCCUGUCAGAUUCUGGUGAAUCUGCGAAUACUGCUUUAUAUCUC | 0.47
UAACAGGGGGCCACAGCAGAAGCGUUCAUGUCGCAGCCCCUGUCAGAUUCUGGUGAAUCUGCGAAUACAGCUGUAUAUCUC | 0.06
UAACAGGGGGCCACAGCAGAAGCGUUCAUGUCGCAGCCCCUGUCAGAUUCUGGUGAAUCUGCGAAUCCAGCUGUAUAUCUC | 0.14
UAACAGGGGGCCACAGCAGAAGCGUUCACAUCGCGGCCCCUGUCCGAUUCUGGAGAAUCUGCGAAUUGUGCUGUAUAUCUC | 0.17
UAACAGGGGGCCACAGCAGAAGCGUUCACAUCGCGGCCCCAGUCAGAUUCAGGUGAAUCUGCGAAUUCUGCUGUAUAUCUC | 0.16
UAACAGGGGGCCACAGCAGAAGCGUUCACAUCGCGGCCCCUGUCAGAUCCUGGUGAAUCUGCGAAUUCCGCUGUGUACCUC | 0.1
UAACAGGGGGCCACAGCAGAAGCGUUCACAUCGCGGCCCCUGUCAGAUUCUGGUGAAUCUGCGAAUACGGCUGUAUAUCUC | 0.14
UAACAGGGGGCCACAGCAGAAGCGUUCACAUCGCGGCCCCUGUCAGAUUCUGGUGAAUCUGCGAAUUCUGCUGUAUACCUC | 0.13
UAACAGGGGGCCACAGCAGAAGCGUUCACAUCGCUGCCCCUGUCAGGUUCUGGUGAACCUGCGAAUUCUGCUGUAAGUCUC | 0.07
UAACAGGGGGCCACAGCAGAAGCGUUCACAUCGCUGCCCCCGUCAGAUUCCGGUGAGUCUGCGAAUUCUGCUGUAUAUCUC | 0.12
UAACAGGGGGCCACAGCAGAAGCGUUCACAUCGCUGCCCCUGUCAGAUUCUGGUGAAUCUGCGAAUUCUGCUGAAUAUCUC | 0.16
UAACAGGGGGCCACAGCAGAAGCGUUCACAUCGCAGCCCCUGUCCGAUUCUGGUGAAUCUGCGAAUUCUGCUGUAUACCUC | 0.06
UAACAGGGGGCCACAGCAGAAGCGUUCACAUCGCAGCCCCUGUCGGAUUCAGGUGAAUCUGCGAAUUCUGCUGUAUAUCUC | 0.17
UAACAGGGGGCCACAGCAGAAGCGUUCACAUCGCAGCCCCUGUCUGAUUCUGGUGGGUCUGCGAAUUCUGCUGUAUAUCUC | 0
UAACAGGGGGCCACAGCAGAAGCGUUCACAUCGCAGCCCCUGUCUGAUUCUGGCGAACCUGCGAAUUCUGCUGUAUAUCUC | 0.13
UAACAGGGGGCCACAGCAGAAGCGUUCACAUCGCAGCCCCUGUCUGAUUCUGGUGAAUCUGCGAAUCCUGCCGUAUAUCUC | 0.07
UAACAGGGGGCCACAGCAGAAGCGUUCACAUCGCAGCCCCUGUCAGGUUCUGGUGAAUUUGCGAAUUCUGCUGAAUAUCUC | 0.2
UAACAGGGGGCCACAGCAGAAGCGUUCACAUCGCAGCCCCUGUCAGUUCCCGGUGAACCUGCGAAUUCAGCUGUAUAUCUC | 0.08
UAACAGGGGGCCACAGCAGAAGCGUUCACAUCGCAGCCCCUGUCAGAUUCUGGUGGGUCUGCGAAUUCUGCUGUAUAUCUC | 0.12
UAACAGGGGGCCACAGCAGAAGCGUUCACAUCGCAGCCCCUGUCAGAUUCUGGUGAGUCUGCGAAUUCUGCUGUAUAUCCC | 0.68
UAACAGGGGGCCACAGCAGAAGCGUUCACAUCGCAGCCCCUGUCAGAUUCUGGUGAAUCUGCGGAUCCUGCUGCAUAUCUC | 0.07
